Results reported in article PMC6919601, “Identification of Plasmodium dipeptidyl aminopeptidase allosteric inhibitors by high throughput screening” (PLoS ONE, 2019).
The whole screen tested about 110,000 compounds, of which about 230 (0.21%) showed an effect of 50% or more. This is one part of the list.

biological target: DPAP1 (Plasmodium falciparum, UniProt Q8IIJ9); assay: primary screen, percent inhibition; read by cleavage of a fluorogenic dipeptide substrate; higher = more effect of the substance; set-up: species or system P. falciparum D10 trophozoite lysates; single well
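Further: 30 min substrate incubation versus DMSO and 10 µM JCP410 controls.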

Chain of DPAP1 (Q8IIJ9 whole entry, looked up): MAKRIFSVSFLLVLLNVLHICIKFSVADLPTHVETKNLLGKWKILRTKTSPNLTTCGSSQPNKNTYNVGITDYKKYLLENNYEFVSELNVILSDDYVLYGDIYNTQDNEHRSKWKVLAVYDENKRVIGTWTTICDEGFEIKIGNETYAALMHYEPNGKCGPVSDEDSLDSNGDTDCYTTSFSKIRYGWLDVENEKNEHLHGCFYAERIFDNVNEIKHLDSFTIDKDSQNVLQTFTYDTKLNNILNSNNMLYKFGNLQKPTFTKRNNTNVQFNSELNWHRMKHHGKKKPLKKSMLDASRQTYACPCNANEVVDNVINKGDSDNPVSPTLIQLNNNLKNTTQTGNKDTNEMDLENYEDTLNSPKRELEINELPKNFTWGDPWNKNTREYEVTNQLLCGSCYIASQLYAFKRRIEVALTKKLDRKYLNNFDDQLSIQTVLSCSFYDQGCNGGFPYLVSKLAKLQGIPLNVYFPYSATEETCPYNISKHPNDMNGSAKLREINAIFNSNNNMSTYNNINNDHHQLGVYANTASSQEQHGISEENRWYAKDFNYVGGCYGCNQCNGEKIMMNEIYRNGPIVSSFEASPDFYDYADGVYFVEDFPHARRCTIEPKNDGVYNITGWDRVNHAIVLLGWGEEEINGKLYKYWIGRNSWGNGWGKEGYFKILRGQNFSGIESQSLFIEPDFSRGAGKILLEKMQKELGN

Row | Structure (SMILES) | % Inhibition @ 10 uM [%]
1 | O=C(O)c1ccc([N+](=O)[O-])c2c1NCC1CC=CC21 (stereo not shown) | -3.09
2 | C=CCN1CC(=O)C(c2nc3ccccc3[nH]2)=C1N | 2.14
3 | CC1CC(=O)C2=C(C1)OC(N)=C(C#N)C2c1ccco1 (stereo not shown) | -4.02
4 | CCc1n(CC(O)COc2cccc(Cl)c2)c2ccccc2[n+]1C (stereo not shown) | 2.95
5 | CC1=[N+](CCCS(=O)(=O)O)SC2C=CC(Cl)=CC12 (stereo not shown) | -2.91
6 | O=C(C1CCN(S(=O)(=O)N2CCC3(CC2)OCCO3)CC1)N1CCCCC1 | -8.73
7 | Cc1cc(NC(=O)Cn2cnc3onc(-c4ccc(Cl)cc4)c3c2=O)no1 | -1.51
8 | Cc1cc(C)nc(NS(=O)(=O)c2ccc(NC(=O)CSc3nc(C)cc(C)n3)cc2)n1 | -7.08
9 | O=C1CC(c2ccccc2Cl)Cc2nc(NC3CC3)ncc21 (stereo not shown) | 3.87
10 | CCN1CCC(N2CCN(c3ccc(Cl)cc3)CC2)CC1 | -5.9
11 | COc1cccc(-c2[nH]nc3c2C(c2ccc(O)cc2)NC3=O)c1 (stereo not shown) | -3.35
12 | Cc1c(C(=O)NCc2ccc3c(c2)OCO3)oc2ccc3c(c12)C=CC(C)(C)O3 | 5.2
13 | Cc1n[nH]c(SCC(=O)Nc2ncccn2)n1 | -1.68
14 | O=C(/C=C/c1ccc(-c2cccc([N+](=O)[O-])c2)o1)c1ccccc1 | 2.76
15 | Cc1ccc(-c2c(NCCCN3CCN(C4CCCCC4)CC3)c(=O)c2=O)cc1C | 1.97
16 | CCOc1ccccc1C1C(C(=O)Nc2ccc(F)cc2)=C(C)Nc2ncnn21 (stereo not shown) | -9.02
17 | CCCSc1nnc2c(n1)OC(c1ccc(C(C)C)cc1)Nc1ccccc1-2 (stereo not shown) | 3.61
18 | CCC(C)(C)C1CCc2nc3sc(C(=O)Nc4ccccc4C(N)=O)c(N)c3cc2C1 (stereo not shown) | -6.27
19 | CC1CCN(CC(O)Cn2c3ccc(Cl)cc3c3cc(Cl)ccc32)CC1 (stereo not shown) | 3.01
20 | Cc1nn(CC(=O)NCc2ccc(OC(C)C)cc2)c(=O)c2cc3cc(F)ccc3n12 | 1.68
21 | CC(Oc1ccc(Cl)cc1Cl)C(=O)Nc1cccc(C#N)c1 (stereo not shown) | -1.04
22 | CCOC(=O)c1oc2ccc(S(=O)(=O)Nc3c(O)oc4ccccc4c3=O)cc2c1C | 5.9
23 | CC1CC(C)CN(Cc2nc3c(c(=O)n(C)c(=O)n3C)n2CCCc2ccccc2)C1 (stereo not shown) | -5.1
24 | CC(C)(CO)Nc1nc(Cl)nc(N2CCOCC2)n1 | 5.48
25 | CN(Cc1ccco1)C(=O)C1CCC(CNS(=O)(=O)c2ccc(Cl)cc2)CC1 (stereo not shown) | -4.53

Row | Structure (SMILES) | % Inhibition @ 10 uM [%]
26 | Cc1ccc(NC(=O)C2=C(O)CCn3c2nc2ccccc23)cc1 | -2.55
27 | CC(C)C(=O)Nc1c2c(nc3c1CCC3)CCCC2 | 0.345
28 | Cc1cc(C)c2c(CC(=O)Nc3nc(C)c(C(=O)OCC(C)C)s3)coc2c1 | 2.62
29 | CCOc1ccc2oc(=O)cc(CN3CCN(c4ncccn4)CC3)c2c1 | -1.71
30 | COc1ccc2[nH]c(C)c(CCN3C(=O)OC4(CCCCC4)C3(C)O)c2c1 (stereo not shown) | -0.25
31 | Clc1ccccc1/C=C/c1nn2c(-c3ccco3)nnc2s1 | -1.31
32 | CC(C)(C)N1C(=O)NC(=O)/C(=C\c2c(Cl)cccc2Cl)C1=O | 11.8
33 | COc1ccc(C2NC(=O)C(C#N)=C(S)N2c2ccccc2)cc1 (stereo not shown) | 5.18
34 | Cc1ccc(-c2cnc3ccccc3n2)c(C)c1 | 1.9
35 | CCN(CC)C(=O)c1sc(NC(=O)c2c(-c3ccccc3)noc2C)c(C#N)c1C | -3.26
36 | CC(=O)c1cccc(NC(=O)C2C3CC/C=C\CC/C=C/CCC32)c1 (stereo not shown) | 4.96
37 | COc1ccc(C2(C(=O)Nc3ccc(OC)cc3OC)CCCC2)cc1 | 3.29
38 | CCc1ccc(-c2nc(CSCC(=O)NCc3ccccc3Cl)c(C)o2)cc1 | 3.99
39 | Cc1cccc(C(=O)N2CCN(c3ccc([N+](=O)[O-])cc3)CC2)c1 | -5.5
40 | CCCCc1ccc(CC2[Se]C(N)=NC2=O)cc1 (stereo not shown) | 5.88
41 | Cc1ccc(/C=C2\SC(N3CCOCC3)=NC2=O)o1 | -1.6
42 | CC(NC(=O)C1CCCN(S(=O)(=O)N(C)C2CCCCC2)C1)c1ccc2c(c1)OCCO2 (stereo not shown) | -1.67
43 | CC(C)(C)c1cc(C(F)(F)F)n2ncc(-c3ccccc3)c2n1 | 0.275
44 | COc1ccc(N2C(=O)c3ccc(C)cc3C2=O)c(OC)c1 | 1.62
45 | O=C(CSc1nc2c(c(=O)n1Cc1ccccc1)SCC2)NC1CCCC1 | 5.8
46 | CCOCCCNC(=O)C(c1ccccc1)N(Cc1ccc2c(c1)OCO2)C(=O)c1ccccc1O (stereo not shown) | -0.363
47 | CC1(C)CC(NC(=O)c2cc3cc(Br)ccc3oc2=O)CC(C)(C)N1 | 2.18
48 | CCc1ccc(OCC(=O)N2CCc3ccccc32)c(Br)c1 | 4.22
49 | COc1ccc2c(c1)-c1nc(NC(=O)c3cccc(Cl)c3)sc1CC2 | -0.0735
50 | COc1ccc2cc(C(=O)N3CCOCC3)sc(=O)c2c1OC | -0.884

Row | Structure (SMILES) | % Inhibition @ 10 uM [%]
51 | Cc1ccc(C2N[C@@H](C(=O)O)C(C)(C)S2)cc1 (stereo partly shown) | -8.58
52 | CC1=C(C(=O)OCC(C)C)C(c2ccccc2F)NC(=O)N1 (stereo not shown) | 1.83
53 | CCOc1ccc(-c2nonc2NC(=O)c2oc3ccc(C)cc3c2C)cc1 | 6.89
54 | Cc1ccc(OCC(O)CN2CCn3c4c(c5cc(C)ccc53)CCCC42)cc1 (stereo not shown) | 2.91
55 | Cc1nc2c(c(C)nn2C(C)(C)C)c(C)c1CCC(=O)N1CCCCCC1 | -8.02
56 | COc1ccc(C2Nn3c(C)nnc3SC2C(=O)NCc2ccco2)cc1 (stereo not shown) | 1.72
57 | Cc1nn(C(=O)c2cccs2)c(C)c1Sc1ccccc1 | 10.6
58 | CCOc1ccc(/C=C(\C#N)c2nc(-c3ccc(C)cc3C)cs2)cc1 | 0.912
59 | COc1ccc2c(c1)C1=NN(/C(C)=C/C(C)=O)C(c3cccc([N+](=O)[O-])c3)C1CC2 (stereo not shown) | 23.7
60 | O=c1oc2ccc(Br)cc2cc1-c1ccccc1 | -0.969
61 | COc1ccc(CN2CCN(Cc3cccc(Cl)c3)CC2)cc1 | -0.914
62 | CCOc1ccccc1C1CC(=O)NC(C)=C1C(=O)OC1CCCC1 (stereo not shown) | 2.54
63 | CCC/N=C(\C)c1c(CCC)nn(-c2nc3ccccc3s2)c1O | 4.33
64 | Cc1sc(NC(=O)c2ccco2)c(C#N)c1C | 1.84
65 | CC(=O)N1CCN(c2ccc(NC(=O)Cc3ccccc3)cc2)CC1 | 14.6
66 | CCN(Cc1ccccc1)C(=O)c1ccc(C)cc1 | 0.135
67 | CSc1nsc(SC)c1NC(=O)OC1CCCCC1 | 1.46
68 | Cc1cc(C(=O)CN2CCC(C)CC2)c(C)n1-c1ccc(F)cc1 | 0.26
69 | COc1ccc(C2CNC(=O)C2C(=O)O)cc1 (stereo not shown) | -2.42
70 | O=C(O)C1=C(c2ccccc2)OCCS1 | -0.0309
71 | COc1cc2c(cc1/C=C1/NC(=O)N(Cc3ccccc3)C1=O)OCO2 | 3.27
72 | CC(C)(C)c1ccc(C(CC(=O)O)NS(=O)(=O)Cc2ccccc2)cc1 (stereo not shown) | 2.72
73 | O=C(CSc1nnc(Cc2cc(O)nc(O)n2)n1-c1ccc(F)cc1)N1CCOCC1 | 5.32
74 | COc1ccc(/C=C2/N=C(N)SC2=O)cc1 | -1.74
75 | C#CC(C)(CC)NC(=O)c1cc(OC)c(OC)c(OC)c1 (stereo not shown) | 5.88

Row | Structure (SMILES) | % Inhibition @ 10 uM [%]
76 | O=C(O)c1cccc(-n2[nH]c(=O)ccc2=O)c1 | -3.93
77 | O=C1NCCCc2c1oc1cc(Br)c(O)c(Br)c21 | -0.0626
78 | Cc1ccc(-c2nc(CS(=O)(=O)CC(=O)NCc3cccnc3)c(C)o2)cc1 | -1.89
79 | CCC(C)NC(=O)CCc1c(C)nc2cc(-c3ccccc3OC)nn2c1C (stereo not shown) | 2.93
80 | Cc1cc(-c2ccc(C)c(S(=O)(=O)Nc3cccnc3)c2)on1 | 1.15
81 | Cc1oc2c(c1C(=O)NCCCN1CCOCC1)C(=O)c1ccccc1C2=O | -3.53
82 | COc1ccc(N(C(C)C(=O)Nc2ccc(Cl)cc2)S(C)(=O)=O)cc1 (stereo not shown) | 1.89
83 | COc1ccc(C2=NC3(CCNCC3)NC2=S)cc1 | -1.01
84 | CCOC(=O)/C(C#N)=C/c1c(Oc2cccc(C)c2C)nc2ccccn2c1=O | 77.8
85 | O=c1/c(=C\c2ccccc2Br)sc2nnc(-c3ccccc3)n12 | 0.561
86 | CCOc1ccc(CN2CCCC(O)C2)cc1 (stereo not shown) | -4.35
87 | O=C(O)CC1(CC(=O)Nc2cccc(O)c2)CCCC1 | 4.39
88 | Cn1cc(C=C2C(=O)OC3(CCCCC3)OC2=O)c2ccccc21 | -1.47
89 | CCOc1cc(CNCCCN2CCOCC2)ccc1OCC(=O)NC(C)(C)C | -3.23
90 | Cc1nn(CC(=O)NC(C)c2ccccc2)c(=O)c2c1sc1ccccc12 (stereo not shown) | 2.65
91 | COc1ccc(C2C(C(=O)c3ccc4c(c3)CC(C)O4)=C(O)C(=O)N2Cc2cccnc2)c(OC)c1 (stereo not shown) | 4.44
92 | O=C(Nc1ccc(S(=O)(=O)NCc2ccccc2)cc1)c1ccncc1 | -0.251
93 | Cc1cccc(OCCCn2cnc3ccccc32)c1 | -0.551
94 | CCOC(=O)c1ccc(OCC2c3cc(OC)c(OC)cc3CCN2C(=S)NCCOC)cc1 (stereo not shown) | 0.457
95 | O=C(O)CSc1c2c(nc3cc(C(=O)N4CCCC4)ccc13)CCCC2 | -0.0593
96 | COc1ccc(COC(=O)C2=C(C)NC(=O)CC2c2ccccc2Cl)cc1 (stereo not shown) | -10.3
97 | CC(C)Cc1nnc2sc(NC(=O)c3ccccc3)nn12 | 6.38
98 | CC(C)(C)c1ccc(CN(Cc2ccco2)C(=O)COc2ccccc2)cc1 | -1.07
99 | CCn1cc(C(=O)OCc2ccccc2)c(=O)c2ccc(C)nc21 | 1.74
100 | COc1ccc(OC)c(-c2cc(C(=O)O)c3cc(Br)ccc3n2)c1 | -3.72
